Publication PMC4336329 (PLoS ONE, 2015)
Screen size: about 310,000 compounds; about 14,000 (4.5%) showed an effect of 50% or more. Effects have a minus sign here. This is one part of the list.

Each compound was assayed against human ether-à-go-go-related gene (hERG) potassium channel (human, UniProt Q12809) (assay: primary screen, population patch clamp on CHO cells stably expressing hERG).
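Further: peak tail current of the secondary pulse compared with the same well before compound.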

human ether-à-go-go-related gene (hERG) potassium channel, sequence (Q12809 whole entry, looked up): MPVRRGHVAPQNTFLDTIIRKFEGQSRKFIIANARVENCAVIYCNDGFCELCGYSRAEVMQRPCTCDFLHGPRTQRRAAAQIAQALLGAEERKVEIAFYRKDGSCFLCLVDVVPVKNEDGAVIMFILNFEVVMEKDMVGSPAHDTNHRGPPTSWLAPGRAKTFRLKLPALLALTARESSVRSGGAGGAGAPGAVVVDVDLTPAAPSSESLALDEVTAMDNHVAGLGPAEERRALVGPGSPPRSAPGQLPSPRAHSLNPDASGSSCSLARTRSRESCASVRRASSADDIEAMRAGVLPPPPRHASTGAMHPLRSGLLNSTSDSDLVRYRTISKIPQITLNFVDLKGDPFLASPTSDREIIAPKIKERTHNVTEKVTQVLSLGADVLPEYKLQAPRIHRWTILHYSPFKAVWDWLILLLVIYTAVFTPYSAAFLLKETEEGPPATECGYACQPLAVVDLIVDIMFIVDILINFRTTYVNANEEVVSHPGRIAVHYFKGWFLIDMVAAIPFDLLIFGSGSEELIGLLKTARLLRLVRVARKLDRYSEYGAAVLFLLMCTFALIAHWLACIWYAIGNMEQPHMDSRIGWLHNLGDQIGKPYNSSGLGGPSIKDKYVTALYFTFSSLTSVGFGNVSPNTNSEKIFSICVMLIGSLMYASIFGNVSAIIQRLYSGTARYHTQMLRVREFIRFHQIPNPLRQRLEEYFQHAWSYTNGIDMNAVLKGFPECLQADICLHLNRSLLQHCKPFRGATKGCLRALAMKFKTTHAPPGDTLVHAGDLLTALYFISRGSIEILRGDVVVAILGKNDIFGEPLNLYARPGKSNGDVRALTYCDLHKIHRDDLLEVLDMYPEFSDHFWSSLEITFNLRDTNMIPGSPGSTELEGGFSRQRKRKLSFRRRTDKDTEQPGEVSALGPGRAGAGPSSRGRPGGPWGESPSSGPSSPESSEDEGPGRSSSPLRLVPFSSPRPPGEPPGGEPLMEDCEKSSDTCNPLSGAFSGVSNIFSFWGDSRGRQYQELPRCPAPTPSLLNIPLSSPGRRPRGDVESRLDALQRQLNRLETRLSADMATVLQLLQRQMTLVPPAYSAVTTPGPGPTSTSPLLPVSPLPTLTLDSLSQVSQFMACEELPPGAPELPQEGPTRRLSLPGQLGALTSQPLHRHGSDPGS

SMILES	hERG current change (%, negative = inhibition) at 10uM
Cc1ccccc1OCC(=O)Nc1nnc(-c2ccco2)s1	-11.2%
Cc1cc(NC(=O)CCC(=O)N(Cc2ccccc2)C2(C(=O)NC3CCCCC3)CCCC2)no1	21.1%
O=C(CCC1CCCN(C(=O)c2ccoc2)C1)NCc1ccc(F)c(F)c1 (stereo not drawn)	-15.6%
CCCOc1ccc(C(=O)NNC(=S)NC(=O)c2ccco2)cc1	23.4%
CC1Cc2ccccc2N1C(=O)/C=C/c1cccc(F)c1 (stereo not drawn)	-7.78%
COc1ccc(CN2CCCCC2c2cccnc2)cc1C (stereo not drawn)	0.438%
C=CCOc1ccc(C=Nc2ccc(C)c(Cl)c2)c(O)c1	-2.2%
COc1ccc(NC(=O)Cc2ccccc2F)cn1	-9.53%
CCN(CC)CCCNc1nc(N)c([N+](=O)[O-])c(N2CCCCCC2)n1	-30.3%
CC(=O)Nc1ccc(NC(=O)CCNS(=O)(=O)c2cccc3nsnc23)cc1	18.6%
COc1cccc(CNc2ccc([N+](=O)[O-])cc2C)c1	-4.84%
CC1(C)CC(=O)C2=C(C1)N=C1SCCC(=O)N1C2c1ccccc1 (stereo not drawn)	4.24%
CC1CCCN(CCCOc2ccc(Br)cc2Cl)C1.O=C(O)C(=O)O (stereo not drawn)	-78.4%
Cc1cc(C)[n+](-c2ccc(C(C)C)cc2)c2[nH]c(=O)[nH]c(=O)c12.[I-]	4.71%
CCOC(=O)C1CCCCN1S(=O)(=O)c1cc2c(cc1C)NC(=O)CO2 (stereo not drawn)	-19.8%
COc1cccc(C(=O)NCCS(=O)(=O)N2CCN(C(=O)c3ccco3)CC2)c1	-28.6%
Cl.OCCNCCNCc1ccccc1OCc1ccccc1	8.83%
O=C1CCCc2c1cc(C(=O)O)c(=O)n2-c1ccccc1	13.9%
O=C(CCSCc1cccc(Cl)c1)NC1CCCC1	-3.11%
Cn1cnc([N+](=O)[O-])c1Sc1ccc(Br)cc1	-20%
COc1ccccc1/C=C(/CC(=O)NCc1ccc(F)cc1)c1nc2ccccc2s1	1.37%
CCOC(=O)c1c(N)n(C2CC(C)(C)NC(C)(C)C2)c2nc3ccccc3nc12	-44.1%

SMILES	hERG current change (%, negative = inhibition) at 10uM
N#Cc1cn(-c2ccccc2)nc1C(=O)c1ccccc1	-1.13%
Cc1ccc(/C=N/Nc2nnc(Cl)c3ccccc23)cc1	-13%
O=C(Nc1ccc(N2CCCCC2)cc1)c1cccnc1	4.6%
Cc1ccc(S(=O)(=O)N2CCC(C(=O)NCc3ccccc3Cl)CC2)cc1	-4.47%
Cc1cc(C)cc(OCC(=O)NCCc2nc3ccccc3[nH]2)c1	-23%
O=C(OCc1ccc([N+](=O)[O-])cc1)c1ccc(N2CCCC2)c([N+](=O)[O-])c1	-14.3%
O=C(O)c1ccccc1C(=O)NNc1cccc(Cl)n1	13.3%
Cc1ccc(N2C(=O)NC(=O)C3(Cc4ccccc4N4CCCC43)C2=O)cc1 (stereo not drawn)	-12.5%
Cc1c(Cl)cccc1NC(=O)CNC(=O)C1CC(=O)N(CCc2ccccc2)C1 (stereo not drawn)	0.805%
C=C(C)Cn1c(N2CCCC2)nc2c1c(=O)n(C)c(=O)n2C	13.3%
O=C1N=C(N2CCN(Cc3ccccc3)CC2)S/C1=C/c1cccs1	-41.1%
CCc1ccc(CNCCc2c[nH]c3ccccc23)cc1.O=C(O)C(=O)O	-40.9%
O=C(O)CSc1nnc(CNc2ccccc2Cl)n1-c1ccccc1	-7.12%
O=C(Cn1cccc1)N1CCN(C(c2ccccc2)c2ccccc2)CC1	-3.68%
O=C1CC(N2CCN(c3ccccn3)CC2)C(=O)N1c1ccc(F)cc1 (stereo not drawn)	14.7%
COc1ccc(CCNC(=O)C2CC(=O)N(c3ccccc3)C2)cc1OC (stereo not drawn)	-2.19%
CC(C)[C@H](NC(=O)c1ccccc1Cl)C(=O)Nc1nc(-c2ccccn2)cs1	-8.03%
CCn1c(C)c(C(C)=O)c(N2CCN(c3ccccc3)CC2)nc1=S	-1.65%
O=C(N/C(=C\c1cccc([N+](=O)[O-])c1)C(=O)N1CCOCC1)c1ccc([N+](=O)[O-])cc1	12.5%
COc1ccc2c(c1)c(C(=O)N/N=C/c1ccc(Br)cc1)c(C)n2C	-64.1%
COc1ccc(Cl)cc1NC(=O)C1CC(=O)N(C2CCCCC2)C1 (stereo not drawn)	-2.08%
Cc1ccc(S(=O)(=O)Cc2ccc(C(=O)N3CCN(Cc4ccccc4)CC3)o2)cc1	-30.1%

SMILES	hERG current change (%, negative = inhibition) at 10uM
CCCCc1nc2cc(C(=O)N3CCN(c4cnccn4)CC3)ccc2o1	-8.31%
C=CCOc1ccccc1/C=c1\sc2nc(-c3oc4ccccc4c3C)nn2c1=O	-8.15%
O=C1c2ccc(Cl)cc2S(=O)(=O)c2cccc(C(=O)N3CCC(Cc4ccccc4)CC3)c21	0.14%
Cc1noc(/C=C/N(C)C)c1S(=O)(=O)N1CCN(c2ccccc2)CC1	-4.87%
CCOc1ccc(S(=O)(=O)NCc2ccncc2)cc1NC(=O)c1ccccc1	-37.7%
CCCC(=O)Nc1cc(C)c(NC(=O)c2ccccn2)cn1	5.43%
Cc1ccc(OCC(=O)N/N=C/c2ccc([N+](=O)[O-])o2)cc1	-39.8%
CN(C)S(=O)(=O)c1cccc(NC(=O)CN2C(=O)NC(CCc3ccccc3)C2=O)c1 (stereo not drawn)	-7.36%
O=C(C1CCCN(Cc2ccccc2Cl)C1)N1CCCCC1.O=C(O)C(=O)O (stereo not drawn)	9.1%
CC(C)(C)c1[nH]nc2c1C(c1ccncc1)C(C#N)=C(N)O2 (stereo not drawn)	6.04%
Cc1ccc(-c2nc(CN(C)C3CCOCC3)c(C)o2)s1	-27.7%
COc1ccc(/C(O)=C2/C(=O)C(=O)N(CC3CCCO3)C2c2cccc(OC)c2)cc1 (stereo not drawn)	11.1%
CC1CCN(S(=O)(=O)c2cccc(C(=O)Oc3ccc([N+](=O)[O-])cc3)c2)CC1	-28.1%
O=C(CCCSc1ccccc1)Nc1nc(-c2ccco2)c(-c2ccco2)s1	-0.216%
COc1cc2c(cc1OC)-c1c(OC)c(OC)cc3ccnc(c13)C2=O	-30.7%
Cl.N=c1ccn(CC(=O)NC(N)=O)c2ccccc12	-1.56%
Cc1cccc(Nc2ccncc2S(N)(=O)=O)c1	0.246%
NCC(c1ccccc1)c1c[nH]c2ccccc12 (stereo not drawn)	13.2%
O=C(CCN1C(=O)c2ccncc2C1=O)Nc1ccc2c(c1)OCCO2	-4.56%
CC(=O)Nc1ccc(S(=O)(=O)NCCC(=O)N2CCc3ccccc32)cc1	17.2%
O=C(O)CSCC(=O)N1CCN(c2ncnc3scc(-c4ccccc4)c23)CC1	25.4%
O=C(O)c1nccnc1C(=O)Nc1ccccc1-c1ccccc1	-0.583%

SMILES	hERG current change (%, negative = inhibition) at 10uM
CCOC(=O)Cn1ccc(NC(=O)c2ccc3c(c2)OCO3)n1	6.64%
Cc1cc(C)nc(NS(=O)(=O)c2ccc(NC(=O)c3ccccc3C)cc2)n1	15%
O=C(CSc1nnc(CNC(=O)c2ccco2)o1)NC1CCCC1	0.367%
COCCCNC(=O)c1ccc2c(=O)n(Cc3ccc(Cl)cc3)c(=S)[nH]c2c1	10.9%
CC1(C)CC2CC(C)(CN2C(=S)Nc2ccccc2F)C1 (stereo not drawn)	4.05%
Cc1cc(=O)nc2c3ccccc3n(C(C)C(=O)NCCC(C)C)n12 (stereo not drawn)	17.2%
COc1ccc(CN(Cc2nc3ccccc3c(=O)[nH]2)C(=O)NC2CCCCC2)cc1	-15.9%
Cc1ccccc1OCC(O)CN1C(=O)c2ccccc2C1=O (stereo not drawn)	4.28%
COC(=O)CCCC(=O)NC1CCCc2c1cnn2-c1ccc(F)cc1F (stereo not drawn)	17.3%
O=C(CSc1nncn1-c1ccccc1)N1CCCC1	2.66%
COc1cc(/C=C/C(=O)O)cc(S(=O)(=O)NC2CC2)c1OC	0.679%
O=C(CN(C(=O)CCC(=O)Nc1nccs1)c1ccccc1F)NCc1ccc2c(c1)OCO2	10.6%
O=C(c1ccc(CS(=O)(=O)c2ccc(Br)cc2)o1)N1CCN(c2ncccn2)CC1	-42.4%
COc1ccc(C(=O)NCC2(c3ccc(OC)c(OC)c3)CCCC2)c(OC)c1	-30.1%
CC(=O)N(c1ccc(Cl)cc1)c1cn(C(C)=O)c2ccccc12	-11.8%
Cc1nc(-c2ccc(F)cc2)c(CC(=O)Nc2ccc(C)c(S(=O)(=O)N3CCOCC3)c2)s1	-26.2%
O=C1CCC(C(=O)Nc2cccc3ccccc23)N1 (stereo not drawn)	-1.25%
CCOC(=O)c1c(CCl)nc2ccccc2c1-c1ccccc1	5.72%
N#C/C(=C(/O)COC(=O)COc1cccc(Br)c1)c1nc2ccccc2[nH]1	12.5%
Cc1cc(C)n(-c2cccc(C(=O)O)c2)n1	6.16%
O=C1CCN(S(=O)(=O)c2ccccc2)CCN1CCOCc1cccc(F)c1	-1.98%
